# Measured values: PubChem BioAssay AID686979 (National Center for Advancing Translational Sciences (NCATS), 2013)
# Hit rate of the full screen: of about 420,000 compounds, about 50,000 (12%) were called active. The shares of active, inactive and inconclusive entries below differ from those in the screen. The call rests on the fitted dose curve; in most records, active means well fitted inhibition curve with a large enough effect; inconclusive means small, poorly fitted or top-dose-only effect; inactive means flat fitted curve, though single readings scatter. Potencies of inconclusive entries are left out as doubtful fits. Where a SMILES comes first, the peptide text is derived from it. The star is where a group is joined. Boc = CC(C)(C)OC(=O)*; Bn = c1ccc(C*)cc1
# Assay: qHTS for Inhibitors of human tyrosyl-DNA phosphodiesterase 1 (TDP1): qHTS in cells in presence of CPT; further: nearly all actives have a fitted effect of over 55% in size
# Conditions: chicken DT40 Tdp1-/-;hTDP1 cells + 20 nM CPT, ATP luminescence, 48 h; activity change, negative = growth inhibition: at 46.2 µM (top of the series) unless noted
# Method in brief: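 Cell growth measured by CellTiter-Glo luminescence after a minimum 48 h, 37 C compound exposure with 20 nM CPT in Tdp1-knockout DT40 cells stably expressing hTDP1, seeded 400/well; qHTS titration format.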
# On the % scale 0 is the no-effect control and ±100 the full control effect; potency means the concentration at half of the fitted maximal effect; tags describe the fitted curve by direction and shape.
Compound,Potency,"activity change, negative = growth inhibition"
COc1ccc(CN(C)CC(=O)NC(=O)NC2CCCCC2)cc1,"inconclusive [inhibitor, single point]",–
CN(C)S(=O)(=O)c1ccc(Cl)c(NC(=O)COC(=O)c2ccc3c(c2)NC(=O)CS3)c1,"inconclusive [inhibitor, single point]",–
COc1ccc(C2Nc3ccccc3C(=O)N2c2ccc(C)cc2)cc1Cn1nc(C)c([N+](=O)[O-])c1C (stereo unspecified),"inconclusive [inhibitor, partial curve]",–
Cc1cc(C)c(NC(=O)c2cc(S(=O)(=O)N3CCCC3)cn2C)c(C)c1,inactive,–
CN(Cc1ccccc1)C(=O)c1c[nH]c2ccc(S(=O)(=O)Nc3ccccc3F)cc2c1=O,inactive,–
O=C(Nc1ccccc1)Nc1ccccc1C(=O)NCCCN1CCOCC1,inactive,–
COc1ccc(S(=O)(=O)NCc2ccco2)cc1N(C)S(=O)(=O)c1ccccc1,inactive,–
COC(=O)NNC(=O)c1cccc(C)c1,inactive,–
CN(C)C1=NCCN1CCc1ccccc1,inactive,–
Cn1cc(-c2coc3c(C(=O)Nc4ccccc4)cccc23)cn1,"inconclusive [inhibitor, single point]",–
CCOC(=O)c1cc2c(=O)n3ccccc3nc2n(CC2CCCO2)c1=NC(=O)c1ccc(OCC)cc1 (stereo unspecified),active: 6.51 µM,–
CCOc1ccccc1-n1nnnc1SCC(=O)NCc1ccco1,inactive,–
COc1ccc(N2CCN(Cc3cc(=O)oc4cc(-c5ccccc5)c(O)cc34)CC2)cc1,active: 5.8 µM,–
CCn1c(SCC(=O)NCc2ccccc2)nc2nc3c(cc2c1=O)CCCC3,inactive,–
Cc1ccc(-c2noc(C3CCCN(C(=O)c4cccc(Cl)c4)C3)n2)o1 (stereo unspecified),"inconclusive [inhibitor, single point]",–
O=C(Cc1cccc(C(F)(F)F)c1)Nc1ccccc1N1CCCC1,"inconclusive [inhibitor, single point]",–
C[C@H](c1ccccc1)N1C[C@@H](COCc2ccccc2)Oc2cc(N3CCC[C@@H]3CO)ccc2S1(=O)=O,"inconclusive [inhibitor, single point]",–
Cc1nnc(SCC(=O)NNC(=O)c2ccccc2)n1-c1ccccc1,inactive,–
O=C(Nc1cccc(NC(=O)c2ccccc2Cl)c1)c1ccc([N+](=O)[O-])o1,active: 8.2 µM,–
O=C(NCCCn1ccnc1)/C(=C\c1ccc(Br)cc1)NC(=O)c1ccccc1,"inconclusive [inhibitor, single point]",–
COc1ccccc1C(=O)COC(=O)Cn1[nH]c(=O)c2ccccc2c1=O,inactive,–
COc1ccc(CNc2ccnc(-c3c(C)noc3C)n2)c(OC)c1,"inconclusive [inhibitor, partial curve, poor fit]",–
Cc1ccc2sc(N(CCCN(C)C)C(=O)c3ccc(S(=O)(=O)N4CCc5ccccc5C4)cc3)nc2c1C,active: 4.61 µM,–
Cc1ccnc(NC(=O)CSc2ccc3c(c2)OCCO3)c1,inactive,–

Compound,Potency,"activity change, negative = growth inhibition"
CC(Oc1cccc(Cl)c1)C(=O)Nc1ccc([N+](=O)[O-])cn1 (stereo unspecified),inactive,–
Cc1ccc(Oc2cc(-n3nc(C)cc3C)ncn2)cc1,–,inconclusive: -34.2% [inhibitor]
COC(=O)/C(C#N)=C/c1ccc(OC(=O)c2ccccn2)cc1,"inconclusive [inhibitor, partial curve, poor fit]",–
CCN(Cc1nc2ccccc2c(=O)[nH]1)C(=O)c1cccc(NC(=O)c2cccs2)c1,active: 11.6 µM,–
C/C(=N\NC(=O)c1cc(C)nc2ccc(C)cc12)c1ccncc1,"inconclusive [inhibitor, single point]",–
COc1ccc(N2CCN(CCCNC(=O)c3sc4ncccc4c3-n3cccc3)CC2)cc1,"inconclusive [inhibitor, single point]",–
Cc1ccsc1C(=O)OCC(=O)NCCCc1ccccc1,inactive,–
CCN(C[C@H]1N[C@@](Cc2ccccc2)(C(=O)OC)[C@H]2C(=O)N(Cc3ccccc3)C(=O)[C@@H]12)S(=O)(=O)c1ccc(C(F)(F)F)cc1,"inconclusive [inhibitor, partial curve, poor fit]",–
Cc1noc(C)c1C(=O)OCC(=O)NCCc1ccc(S(N)(=O)=O)cc1,inactive,–
CC(C)OCCCNC(=O)Cn1c(-c2cccs2)cc2cc(F)ccc21,"inconclusive [inhibitor, partial curve]",–
O=C(CSc1nnc(CNC(=O)c2ccccc2)o1)NCc1ccc(F)cc1,"inconclusive [inhibitor, partial curve]",–
CCOC(=O)CN1C(=O)S/C(=C/c2cccc([N+](=O)[O-])c2O)C1=O,inactive,–
CCN(C(=O)c1nn(C)c2c1CSc1ccccc1-2)c1cccc(C)c1,active: 11.6 µM,–
CCn1c(COc2ccccc2C)nnc1SCC(=O)NCc1ccccc1,"inconclusive [inhibitor, partial curve]",–
CC(C)CC(NC(=O)C(CC(C)C)NC(=O)C(Cc1ccc(OCc2ccccc2)cc1)NC(=O)OC(C)(C)C)C(N)=O (stereo not drawn) (Boc-Tyr(Bn)-Leu-Leu-NH2; configuration not given here),"inconclusive [inhibitor, single point]",–
Cc1cc(C)n(S(=O)(=O)c2cccc(Cl)c2Cl)n1,inactive,–
N#Cc1ccc(C(C(=O)NC2CCCCC2)n2c(=O)c(-c3ccccc3)nc3ccccc32)cc1 (stereo unspecified),"inconclusive [inhibitor, partial curve]",–
CC(Nc1nc(-c2ccccc2)nc2ccccc12)c1ccccc1 (stereo unspecified),"inconclusive [inhibitor, single point]",–
O=C1CC2(CCN(S(=O)(=O)c3ccccc3F)CC2)Oc2ccccc21,inactive,–
CCCNC(=O)C1CCCN(S(=O)(=O)c2ccc3c(c2)CC(C)N3C(=O)C2CC2)C1 (stereo unspecified),"inconclusive [inhibitor, partial curve, poor fit]",–
CC1Cc2ccccc2N1c1ncnc(N)c1[N+](=O)[O-] (stereo unspecified),active: 4.11 µM,–
COc1ccc(S(=O)(=O)NCC(c2ccco2)S(=O)(=O)c2cccs2)cc1OC (stereo unspecified),"inconclusive [inhibitor, single point]",–
CCN(CC)C(=O)c1cccc(-c2csc(C(C)(NC(C)=O)c3ccccc3)n2)c1 (stereo unspecified),"inconclusive [inhibitor, single point]",–
COc1ccc(CCNC(=O)CCc2cc(OC)c(OC)c(OC)c2)cc1,inactive,–

Compound,Potency,"activity change, negative = growth inhibition"
CC(=O)Nc1cccc(C(=O)/C=C/c2ccc(Br)cc2)c1,active: 3.26 µM,–
O=c1[nH]c(/C(Cl)=C/c2cccc(F)c2)nc2cc(C(F)(F)F)ccc12,"inconclusive [inhibitor, single point]",–
O=[N+]([O-])c1ccc(Cl)c(/C=N/NC(=S)Nc2ccccc2)c1,active: 11.2 µM,–
CCCC(=O)NCc1nc2ccccc2n1CC(=O)c1ccccc1,inactive,–
COc1ccccc1NC(=O)C(=O)NCC(c1ccco1)N1CCc2ccccc21 (stereo unspecified),"inconclusive [inhibitor, single point]",–
CCOc1ccc(NC(=O)c2cccc(OC(=S)N3CCOCC3)c2)cc1,inactive,–
Cc1ccc(NC(=O)CN2CCC(C(=O)c3ccc(F)cc3)CC2)cc1,"inconclusive [inhibitor, single point]",–
Cc1cccc(/N=C/c2c(O)cc(C)oc2=O)n1,inactive,–
CCCc1cc(C(=O)Cc2ccccn2)c(O)cc1O,inactive,–
CC(CNC(=O)c1cc(COc2c(F)cccc2F)on1)Oc1cccnc1 (stereo unspecified),active: 20.6 µM,–
CN(Cc1cccc2cnccc12)C(=O)CCc1nnc(CCc2ccccc2)o1,"inconclusive [inhibitor, single point]",–
COc1ccc(NC(=O)c2cc(C3CCCCN3S(=O)(=O)c3ccccc3)on2)c(C)c1 (stereo unspecified),"inconclusive [inhibitor, single point]",–
O=C(NNC(=O)c1csc(-c2cccs2)n1)c1ccc(Cl)cc1,"inconclusive [inhibitor, single point]",–
Cc1cc(C)c(S(=O)(=O)NCC2CCC(C(=O)NCc3ccccn3)CC2)c(C)c1 (stereo unspecified),inactive,–
Cc1ccc(C(=O)c2cc([N+](=O)[O-])ccc2N2CCOCC2)cc1C,active: 1.46 µM,–
O=C(NCCC1=CCCCC1)c1coc(=O)c(Br)c1,active: 0.116 µM,–
O=C1CCC(=O)N(O)CCCCCNC(=O)CCC(=O)N(O)CCCCNC(=O)CCC(=O)N(O)CCCCCN1,"inconclusive [inhibitor, single point]",–
O=c1n(Cc2ccc([N+](=O)[O-])cc2)c2ccccc2c2nc(-c3ccccc3)nn12,active: 7.31 µM,–
COc1ccccc1S(=O)(=O)Cc1ccc(C(=O)NCCCN2CCN(c3ccc(F)cc3)CC2)o1,"inconclusive [inhibitor, single point]",–
COC(=O)[C@]1(C)CCC[C@@]2(C)C3CC[C@@]4(C)C[C@]3(CCC21)CC4=NO (stereo partly specified),"inconclusive [inhibitor, single point]",–
Cc1ccc(S(=O)(=O)N2CCN(C(=O)Cc3ccccc3)CC2)cc1C,"inconclusive [inhibitor, single point]",–
O=C(Nc1nc(-c2ccc3c(c2)OCCO3)cs1)c1ccc(S(=O)(=O)N2CCCCC2)cc1,"inconclusive [inhibitor, single point]",–
O=[N+]([O-])c1ccccc1S(=O)(=O)NCCSCc1ccco1,"inconclusive [inhibitor, single point]",–
